From patent US20230398182A1 (ACCELERON PHARMA, published 2023)
Read-outs that look alike come from different tables or passages of the source.

What was measured:
Human TGFβ1 [1] = molecular target: T1, Human TGFβ1 (human, UniProt P01137 part only); assay: cell-based or functional assay
Human TGFβ1 [2] = molecular target: T1, Human TGFβ1; assay: cell-based or functional assay; remark: listed apart in the source
Human TGFβ1 [3] = molecular target: T1, Human TGFβ1; assay: Biacore (surface plasmon resonance)
Human TGFβ1 [4] = molecular target: T1, Human TGFβ1; assay: cell-based or functional assay; remark: listed apart in the source

T1 sequence (P01137 279-390 limits assumed): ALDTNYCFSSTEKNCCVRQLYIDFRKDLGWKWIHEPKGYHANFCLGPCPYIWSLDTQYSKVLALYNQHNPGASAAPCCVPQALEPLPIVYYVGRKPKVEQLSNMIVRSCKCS

| Binder | IC50 (read off the curve), TGFβ1 (640pg/mL)-induced pGL3(CAGA)12 luciferase reporter in A549 cells (Human TGFβ1 [1]) [ng/mL] | IC50, inhibition of TGFβ1-induced pGL3(CAGA)12 luciferase reporter in A549 cells (Human TGFβ1 [2]) [pM] | Kd (Human TGFβ1 [3]) [pM] | IC50, inhibition of TGFβ1-induced pGL3(CAGA)12 luciferase reporter in A549 cells (Human TGFβ1 [4]) |
| --- | --- | --- | --- | --- |
| hTβRII (G4S)6-hFc (Fc fusion, 76 lacks the C-terminal lysine; Expressed in CHO cells) TIPPHVQKSDVEMEAQKDEIICPSCNRTAHPLRHINNDMIVTDNNGAVKFPQLCKFCDVRFSTCDNQKSCMSNCSITSICEKPQEVCVAVWRKNDENITLETVCHDPKLPYHDFILEDAASPKCIMKEKKKPGETFFMCSCSSDECNDNIIFSEEYNTSNPDTGGGGSGGGGSGGGGSGGGGSGGGGSGGG[human IgG1 Fc and a few adjoining residues left out] | ~2 | 20 | 3.8 | – |
| hTβRII-hFc (Fc fusion, 88 lacks the C-terminal lysine; Expressed in CHO cells; also called TβRII-Fc fusion protein construct with TGGG linker) TIPPHVQKSDVEMEAQKDEIICPSCNRTAHPLRHINNDMIVTDNNGAVKFPQLCKFCDVRFSTCDNQKSCMSNCSITSICEKPQEVCVAVWRKNDENITLETVCHDPKLPYHDFILEDAASPKCIMKEKKKPGETFFMCSCSSDECNDNIIFSEEYNTSNPDTG[human IgG1 Fc and a few adjoining residues left out] | – | – | – | 7.69 nM |
| hTβRII (G4S)3-hFc (Fc fusion, 68 lacks the C-terminal lysine; Expressed in CHO cells) TIPPHVQKSDVEMEAQKDEIICPSCNRTAHPLRHINNDMIVTDNNGAVKFPQLCKFCDVRFSTCDNQKSCMSNCSITSICEKPQEVCVAVWRKNDENITLETVCHDPKLPYHDFILEDAASPKCIMKEKKKPGETFFMCSCSSDECNDNIIFSEEYNTSNPDTGGGGSGGGGSGGG[human IgG1 Fc and a few adjoining residues left out] | – | – | – | 0.22 nM |
| hTβRII (G4S)4-hFc (Fc fusion, 69 lacks the C-terminal lysine; Expressed in CHO cells) TIPPHVQKSDVEMEAQKDEIICPSCNRTAHPLRHINNDMIVTDNNGAVKFPQLCKFCDVRFSTCDNQKSCMSNCSITSICEKPQEVCVAVWRKNDENITLETVCHDPKLPYHDFILEDAASPKCIMKEKKKPGETFFMCSCSSDECNDNIIFSEEYNTSNPDTGGGGSGGGGSGGGGSGGG[human IgG1 Fc and a few adjoining residues left out] | – | – | – | 70 pM |
| hTβRII (G4S)5-hFc (Fc fusion, 75 lacks the C-terminal lysine; Expressed in CHO cells) TIPPHVQKSDVEMEAQKDEIICPSCNRTAHPLRHINNDMIVTDNNGAVKFPQLCKFCDVRFSTCDNQKSCMSNCSITSICEKPQEVCVAVWRKNDENITLETVCHDPKLPYHDFILEDAASPKCIMKEKKKPGETFFMCSCSSDECNDNIIFSEEYNTSNPDTGGGGSGGGGSGGGGSGGGGSGGG[human IgG1 Fc and a few adjoining residues left out] | ~3 | 30 | 8.8 | – |
| hTβRII extended hinge-hFc (Fc fusion, 71 lacks the C-terminal lysine; Expressed in CHO cells) TIPPHVQKSDVEMEAQKDEIICPSCNRTAHPLRHINNDMIVTDNNGAVKFPQLCKFCDVRFSTCDNQKSCMSNCSITSICEKPQEVCVAVWRKNDENITLETVCHDPKLPYHDFILEDAASPKCIMKEKKKPGETFFMCSCSSDECNDNIIFSEEYNTSNPDTGGG[human IgG1 Fc left out] | – | – | – | 5.67 nM |
